Test results reported in the supplement of paper PMC5499739.
The full ranking holds about 16,000 sequences; the median of “Z-score” is about -0.37, and the highest 2% start at about 3.1. This is one part of the list.

Tested on: RBM10 RRM1-ZnF-RRM2 (GST-tagged construct)
Test: RNAcompete 7-mer binding Z-score; higher = stronger binding preference
Procedure, shortened: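 Bound RNA was identified by microarray hybridisation after GST-tagged RBM10 constructs (20 pmol) had been mixed with 1.5 nmol of a designed pool of 241 399 RNAs up to 41 nt, transcribed from microarray-derived DNA templates. Binding ran for 30 min at 4°C in 1 ml Hepes pH 7.8 buffer with KCl, NaCl, glycerol, DTT, BSA and glutathione Sepharose beads, with four 2-min washes at 4°C afterwards. For every heptamer motif, a one-sided Z-score for enrichment was computed across the probes that contained it.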

In order of rising “RNAcompete 7-mer binding Z-score” value:
1. ACUCUGC  -0.974
2. UUUGCCU  -0.974
3. CUCUGAU  -0.919
4. AUCGACC  -0.916
5. GACUCUC  -0.901
6. AUCUCUC  -0.89
7. AACUCUU  -0.883
8. UCCGCCU  -0.883
9. GCCCACC  -0.879
10. CUUCCGC  -0.879
11. UUUUGCC  -0.868
12. AACUCGU  -0.861
13. UUAUUCC  -0.861
14. CGGCUUU  -0.857
15. CCCGUCU  -0.854
16. CCUAACC  -0.85
17. UUGCUUG  -0.843
18. GACCCCA  -0.825
19. ACUCCUA  -0.806
20. GAAUCCU  -0.803
21. CUCCUUG  -0.803
22. UUUACGC  -0.799
23. CUGCCUG  -0.781
24. UUCUCCC  -0.766
25. CCGAGCU  -0.763
26. GCUCUUA  -0.759
27. UCGCCUG  -0.755
28. UGCCACU  -0.741
29. AUCUAAC  -0.741
30. AACCUCA  -0.741
31. UUACCCG  -0.737
32. AUUACUU  -0.734
33. UUGCCAC  -0.726
34. UCUCUCU  -0.723
35. UCUCGCA  -0.708
36. GACCCUG  -0.704
37. GCGAUCU  -0.701
38. CUCAUCG  -0.701
39. ACCGUAA  -0.701
40. UUGACUC  -0.697
41. GAUACUU  -0.694
42. UCUGUCG  -0.69
43. UAACACC  -0.686
44. UACUUAU  -0.686
45. UACGUUC  -0.686
46. ACCAGCC  -0.675
47. CUCCGAC  -0.664
48. CUCGCAC  -0.664
49. GUCUCUU  -0.661
50. AAACCCA  -0.661
51. UAUCAUU  -0.661
52. AUAAUCU  -0.65
53. CUUAUAG  -0.635
54. UCCGAUG  -0.632
55. CGACGCC  -0.628
56. UUACUUG  -0.628
57. CCGUAAA  -0.621
58. CUACUGC  -0.606
59. AGGCCUA  -0.602
60. GGCCUGC  -0.595
61. GUUACCU  -0.588
62. ACCAUUG  -0.584
63. CGUACGC  -0.577
64. AAGUUUC  -0.573
65. ACCACCA  -0.57
66. UCUAAAA  -0.57
67. AAGUUCU  -0.566
68. UGACGUU  -0.544
69. CCACGAC  -0.541
70. GUUAGCC  -0.541
71. GCUUCAG  -0.533
72. UGAUGUU  -0.53
73. AUUAGAC  -0.53
74. AGUAUUU  -0.526
75. CCACCAG  -0.522
76. CAACCAU  -0.519
77. ACGUUCC  -0.515
78. GGCUGUC  -0.504
79. GUUUCUC  -0.497
80. UUAUGAU  -0.497
81. UUAUACA  -0.493
82. AGGUCCC  -0.493
83. CAAAAUA  -0.486
84. CAUCAUA  -0.482
85. GCACCUC  -0.446
86. CAAGAAC  -0.446
87. AGACCAA  -0.439
88. GUCAGCC  -0.431
89. UGAUAAU  -0.431
90. CUAGUAC  -0.431
91. UUCUGGU  -0.424
92. AAAGCAC  -0.398
93. CAAGAUC  -0.398
94. GAGCCGU  -0.391
95. AUAGCAC  -0.388
96. UUAUAGA  -0.369
97. UAUUAGC  -0.358
98. AACCGCG  -0.351
99. CACAAAG  -0.34
100. ACGCUAG  -0.322
101. UUGUGCG  -0.315
102. GAUAGUC  -0.311
103. GCGGCCU  -0.3
104. GUUAAUC  -0.271
105. GCCCCCC  -0.246
106. GUUCAAU  -0.242
107. AUUCAAU  -0.231
108. GCAACAU  -0.227
109. CGUCGGC  -0.216
110. AAAGCUA  -0.213
111. UGAAUUA  -0.209
112. UACCGAG  -0.165
113. GACUAUG  -0.165
114. CAGUCGA  -0.162
115. CGCGUGA  -0.158
116. GAUAAAC  -0.144
117. AACGUAU  -0.144
118. UGGCCGU  -0.14
119. UGAUCAC  -0.136
120. AAACAGU  -0.129
121. UCGUGUG  -0.114
122. GGAACCC  -0.111
123. GAUGAUU  -0.107
124. UGAUGAU  -0.0598
125. GAAAAAU  -0.0415
126. UUGUAGA  -0.0124
127. UUGAAGA  -0.00877
128. AUAGCGU  0.00944
129. AGUAUGC  0.0204
130. UAGUAGU  0.0532
131. GGAGCCC  0.0786
132. CGUCGGA  0.0859
133. AAAUGCA  0.0896
134. GCAGCGC  0.108
135. CGGGCCG  0.133
136. UUAGCAG  0.155
137. GCACGUA  0.162
138. AUGAUGA  0.184
139. AAUCAAG  0.202
140. GAAGUUA  0.25
141. GGUUGUC  0.253
142. CACUAGG  0.257
143. CAGGCCA  0.297
144. GGAAUUU  0.301
145. UAAGAGA  0.304
146. CGGAUGC  0.392
147. GCAAAGA  0.425
148. ACACGGU  0.497
149. CAUAUGG  0.497
150. UCGGGAC  0.523
151. GCAGGUC  0.527
152. AGUGCAA  0.53
153. GAAGAUA  0.563
154. CGAGAAG  0.574
155. CAGGGCU  0.64
156. AGCCAGG  0.661
157. CACGUGG  0.691
158. GGUCAGC  0.716
159. UUAAAGG  0.789
160. GUAGAAA  0.807
161. GGUCAUG  0.869
162. UACAUGG  0.971
163. UAGAGAG  0.993
164. GAGAAGA  1.04
165. CUUGGGG  1.13
166. UGGUACG  1.22
167. GUUAGGC  1.25
168. GAGAACG  1.31
169. GACGGAA  1.46
170. GGGCUAG  1.47
171. UGUGGAU  1.5
172. GGAAGAU  1.55
173. CAGGUUG  1.63
174. AUAAAGG  1.74
175. UGGGAUC  1.83
176. GGGAGUC  1.83
177. GAGACGG  1.9
178. CAAGGUG  2.13
179. AGGGAGC  2.32
180. AUAGGAA  2.49
181. GGGGCGA  2.49
182. UGGAGUG  2.72
183. ACGGGUG  3.24
